# Experimental data as given in the supplement of paper PMC4466236.
# Whole data set: some 33,000 sequences, median “E-score (dimensionless, -0.5 to 0.5)” near -0.058, cut for the highest 2% near 0.35. This is one part of the list.
# Tested on: MvaT
# Test: PBM 8-mer E-score (mean of HK and ME arrays) (E-score (dimensionless, -0.5 to 0.5)); higher = stronger relative binding preference; most listed sequences are background and not binding sites
# Experimental: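 Protein binding microarray: GST-tagged full-length MvaT (P. aeruginosa PAO1) bound to two universal double-stranded 60-mer arrays (ME and HK), each with a constant 25-mer primer and a variable 35-mer region covering all 8-mers. The 8-mer E-score (rank-based, range -0.5 to 0.5, >0.45 = specific binding) is the mean of the two arrays.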
row,Sequence,PBM 8-mer E-score
1,TATACCAA,0.246
2,AGTTCTCA,-0.0217
3,CGGCGAAG,-0.222
4,GTATTGAA,0.23
5,AAAAAATA,0.331
6,AGGTTATG,0.101
7,CGCGCGTA,-0.0215
8,AACAAATC,0.123
9,TGTCTCAA,0.166
10,GTCTACCA,-0.0623
11,GCTATCAA,0.0148
12,GAAGCTAA,-0.139
13,AGCTCGAT,-0.146
14,GATCTGGA,-0.109
15,ACAGTATA,0.265
16,GCTACTCC,-0.197
17,CTGTAAAA,0.125
18,GGAATCCA,-0.0837
19,ACGATTTA,0.169
20,ACGTATGA,-0.1
21,GGTAACGA,0.0405
22,CGTTCCCC,-0.106

row,Sequence,PBM 8-mer E-score
1,TGAATGCA,0.0146
2,CTACGGCC,-0.193
3,CGGGGCAC,-0.155
4,CCGGAATC,-0.00886
5,ACGAGACT,0.0154
6,CTAGCAAA,0.059
7,AAGGAGAT,-0.0816
8,AAGCCACT,-0.228
9,ACCCCTCC,-0.316
10,AAGCAGAA,0.113
11,AATTGGGC,0.165
12,CCTAGTGC,-0.184
13,ACCCTACA,-0.122
14,CCGCAGGC,-0.268
15,CATTCGAC,-0.083
16,AACGTCTG,-0.16
17,AGACAGTA,0.0869
18,AGGGGTAG,-0.2
19,GATTTTCA,-0.0348
20,GAAAGCTA,-0.124
21,TCCACAAA,0.0967
22,ACTCAACT,-0.037

row,Sequence,PBM 8-mer E-score
1,AATCCTAA,0.154
2,AATATCAT,0.294
3,TGCGACAA,0.0724
4,GAAGAAGC,-0.159
5,ATGGTACA,0.0704
6,AGGGGTTG,-0.0976
7,ACCCGAAC,-0.133
8,GCTACTAA,0.111
9,ATAGCATA,0.23
10,GCCGGGGA,-0.225
11,GGAGCCAA,-0.274
12,AACGCGGA,-0.163
13,CGCCCCCA,-0.325
14,ATTAGGGG,-0.0612
15,CCACGGGA,-0.288
16,GATTATCC,0.209
17,CACCCACA,-0.0261
18,AGGTACAC,-0.147
19,TAGACCCA,-0.0766
20,CTCTAGCA,-0.253
21,AATCTTGG,0.0632
22,CGGCCGTA,-0.1

row,Sequence,PBM 8-mer E-score
1,ACTGTAGC,0.11
2,AAAAAAAA,0.271
3,AGGAAGGG,-0.309
4,CAGTGAGC,-0.31
5,TCCTCCCA,-0.213
6,CCGCCAGG,-0.33
7,CTCTAAAC,0.00124
8,GCGAGCAA,-0.0454
9,CTGGCCAG,-0.11
10,GGATGATA,0.0561
11,AACTCTAA,0.25
12,TCACCAAA,0.0788
13,CTTTTAGC,-0.0328
14,CGTTGAAA,0.0238
15,ACGAGATG,-0.173
16,ATGCGATG,-0.0557
17,GCGTAAAA,0.223
18,GCTCTCTA,-0.153
19,CATTAGCC,-0.0329
20,AGCCGACC,-0.118
21,CCACTGAA,-0.103
22,CAGGCTAA,-0.0463

row,Sequence,PBM 8-mer E-score
1,CGAAAACA,0.176
2,GTTACCTA,0.00931
3,AATTTCCC,0.207
4,AGACCGGA,-0.0392
5,ATCCCCTA,-0.253
6,AACCGGTC,-0.0708
7,CTTGAAAA,0.049
8,AGATCCGA,-0.132
9,CGAGAGCA,-0.106
10,ATTTCCGC,0.0484
11,ACGCTCAA,-0.0286
12,CGCGCCCG,-0.173
13,AGCACAAG,-0.0248
14,CTGCCACA,-0.0885
15,CGCAAATC,-0.0327
16,AAGCCTGT,-0.0974
17,CGACTGTC,-0.219
18,CGCCGCAC,-0.196
19,AAATAGGT,0.229
20,GCGGACGA,-0.18
21,ACCTGAAG,-0.105
22,AGCGCGTA,0.0114
